According to PubChem BioAssay AID445 (National Center for Advancing Translational Sciences (NCATS), 2006):
Screen size: about 110,000 compounds; about 40 (0.04%) were called active. This list was built around the results that the source calls inconclusive (neither active nor inactive); the mix of calls is not that of the screen. Calls follow the shape of the dose curve; as a rule, active = well fitted curve in the direction sought with a large enough effect in the signal ratio (not every such curve was filed as active); inconclusive = small, poorly fitted or top-dose-only effect, or a change in a side signal; inactive = flat fitted curve, though single readings scatter; the % refers to the signal ratio.

Assay: IkB Signaling;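 also: 0% = basal untreated cells and 100% = reference inhibitor full response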
Conditions: ABC-DLBCL IkBa-CBG/CBR dual luciferase ratio (green luciferase fused to IkBa over red control in OCI-Ly3 lymphoma cells), 4 h; IkBa stabilization activation: at 57.1 µM (top of the series), scaled: untreated 0%, proteasome inhibitor 100% unless noted
Procedure, shortened: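 In this assay, an IκBα–CBG68 fusion accumulates when IKK-driven degradation is blocked; native CBR normalizes for cell number. OCI-Ly3 cells were treated 4 h with compound and doxycycline, then green and red light read after Chroma-Glo addition.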

Row | Compound | IkBa stabilization activation
1 | Cc1ccc(S(=O)(=O)N2CCN(C(=O)CN3CCc4ccccc4C3)CC2)cc1 | inactive: 4%
2 | Cn1c(=O)c2c(SCc3cccnc3)nc(C3CC3)nc2n(C)c1=O | inactive: -2.87%
3 | O=C(O)c1c(-c2nccc3ccccc23)[nH]c(-c2ccccc2)c1S(=O)(=O)O | inactive: 11.6% [at 11.4 µM, scaled: untreated 0%, proteasome inhibitor 100%]
4 | COc1ccccc1NC(=O)C1=C(C)Nc2nc(SCc3ccccc3)nn2C1c1ccccn1 (centres undefined) | inconclusive: 3.29% [signal inhibitor]
5 | COC(=O)c1[nH]c2cc(OC)c(OC)cc2c1NC(=O)CN1CCN(Cc2ccccc2)CC1 | inactive: -1.73%
6 | CCN(CC)S(=O)(=O)c1ccc2c(c1)N(CC(=O)NCCc1ccc(OC)c(OC)c1)C(=O)CO2 | inconclusive: -3.91% [signal inhibitor]
7 | CC1CCCCN1C(=O)CSc1nnc(-c2c[nH]c3ccccc23)o1 (centres undefined) | inconclusive: 8.84% [signal inhibitor]
8 | O=C(OCC(=O)N1CCc2ccccc21)c1cccnc1 | inactive: 11.2%
9 | Cc1cc(Nc2cc(F)ccc2C)nc(-n2nc(C)cc2C)n1 | inconclusive: -0.13% [signal inhibitor]
10 | COc1cc(NC(=O)Cn2nc3c(cc2=O)CC(C)CC3)cc(OC)c1OC (centres undefined) | inconclusive: 3.64% [signal inhibitor]
11 | CN(C)S(=O)(=O)N(CC(=O)NCCSc1ccccc1)c1ccccc1 | inconclusive: 7.54% [signal inhibitor]
12 | Cc1c(C(=O)N2CCC(C)CC2)c(S(=O)(=O)Nc2ccc(OC(F)(F)F)cc2)c(C)n1C | inconclusive: 0.0398% [signal inhibitor]
13 | COc1ccccc1-c1nnc2sc(-c3cc4ccccc4o3)nn12 | inactive: -3.63%
14 | CCn1cc(C(=O)N2CCN(c3ccc(OC)cc3)CC2)c(=O)c2cc(S(=O)(=O)N3CCOCC3)ccc21 | inactive: -0.742%
15 | COc1ccc2[nH]cc(CCN=C(NC(=O)c3ccccc3C)Nc3nc(C)cc(C)n3)c2c1 | inconclusive: -1.51% [signal inhibitor]
16 | O=C(Nc1ccc(C(F)(F)F)cc1)C(Cc1ccccc1)n1cccc1 (centres undefined) | inconclusive: 0.202% [signal inhibitor]
17 | O=C(NCCCN1CCN(c2ccccc2F)CC1)c1ccc2nc(N3CCCCC3)sc2c1 | inconclusive: 1.77% [signal inhibitor]
18 | O=C(NCc1ccco1)C1CCN(C(=O)c2cc3sccc3n2Cc2ccc(F)cc2)CC1 | inconclusive: 1.54% [signal inhibitor]
19 | CC(=O)Nc1cccc(C(=O)NCc2ccc3c(c2)CCN3C(=O)c2ccc(F)cc2)c1 | inactive: 6.98%
